Assay results taken from ChEMBL document CHEMBL4888484, “Replenishing the malaria drug discovery pipeline: Screening and hit evaluation of the MMV Hit Generation Library 1 (HGL1) against asexual blood stage Plasmodium falciparum ,using a nano luciferase reporter read-out” (2022).
Hit rate of the full screen: of about 150,000 compounds, about 540 (0.36%) showed an effect of 50% or more. Some of the results follow.

System: Plasmodium falciparum
Assay: Primary screen in NF54 nanoGlo assay, in single point, at 2uM, 72h; a lower Z score goes with more inhibition
Assay type: functional, Erythrocyte
Conditions: timepoint 72 hour

| SMILES | % Inhibition | Z score |
| --- | --- | --- |
| O=C(c1cnccn1)N1CC[C@]23C(=O)N(Cc4cn(nn4)CCCOc4cccc(c4)[C@@H]12)c1ccccc13 | -8% | 0.92 |
| O=C(Nc1cc(Oc2ccc3ccccc3c2Cl)ccc1Cl)c1cc(Cl)cc(Br)c1O | -11% | 1.32 |
| c1cc(CN2CCC[C@@]3(CCCO3)CC2)c2cccnc2c1 | 1% | -0.19 |
| Cc1cc(NC(=O)COC(=O)c2cc(Cl)cn2C)no1 | -7% | 0.87 |
| O=C(Cn1c(=O)[nH]c2c(-c3ccccc3F)c[nH]c2c1=O)N1CCN(c2ccccc2)CC1 | 8% | -1.14 |
| CN(Cc1ncc(Br)cn1)c1ncnc2c1CCCC2 | -6% | 1 |
| CC1(C)C(=O)Nc2ccc(C(=O)N3CCC(S(N)(=O)=O)CC3)cc21 | 17% | -2.13 |
| CC(C)(C)c1nnc(CN2CCC[C@H]2c2ccsc2)o1 | -8% | 1.2 |
| Cc1nnc(NC(=O)C2CC(=O)N(C)C2c2cccnc2)s1 (stereo not drawn) | -1% | 0.13 |
| O=C(NC[C@@H](c1ccco1)N1CCCC1)c1cccnc1O | 9% | -0.78 |
| COc1ccccc1CCNC(=O)c1n[nH]c2c1CCCCC2 | 2% | -0.25 |
| O=C(c1cnn(-c2cccc(Cl)c2)c1C(F)(F)F)N1CCN(CCCOCC(F)(F)F)CC1 | -2% | 0.28 |
| O=C(NCCn1ccnn1)[C@@H]1[C@H]2[C@@H]3CC[C@@H](C3)[C@@H]12 | -10% | 1.1 |
| Cc1ccc(F)cc1CC(=O)N1C[C@@H]2CC[C@H]1CN(C(=O)c1ccccn1)C2 | -1% | 0.11 |
| CCc1nn2c(-c3cccnc3)ccnc2c1-c1ccc(Cl)cc1 | -3% | 0.36 |
| CC(=O)NCC1CCN(c2ncc(F)c(N(C)C)n2)CC1 | -13% | 1.27 |
| Cc1ccc(NC(=O)Nc2ccn(CCC#N)n2)cc1-c1ncco1 | 29% | -3.24 |
| c1cc(-c2nnn(C3CCCCC3)c2NC2CCCCC2)[nH]n1 | -4% | 0.7 |
| Cc1ccc2ncccc2c1-c1cncc(C(N)=O)c1 | 14% | -2.23 |
| CCOC(=O)N1CCC(NC(=O)c2cc(C(=O)Nc3cccc(CC)c3)ccc2CO)CC1 | -8% | 1.28 |
| CC1(C#N)CCN(C(=O)c2ccc3c(c2)C(C)(C)CO3)CC1 | -18% | 2.24 |

| SMILES | % Inhibition | Z score |
| --- | --- | --- |
| O=C(N[C@H]1CC(=O)N(CCCc2ccccc2)C1)c1ccc2c(c1)OCO2 | 6% | -0.84 |
| CC[C@H](N)C(=O)N1CCC(Cc2ccccc2)C1C (stereo partly drawn) | 0% | -0.01 |
| CC1(C)COCCN1C(=O)c1cnn2cc(Br)cnc12 | -3% | 0.29 |
| COCCN1C[C@@H](Cc2cc(CO)ccn2)CC1=O | -3% | 0.44 |
| c1cc(-c2nnc3ccc(N4CCOC5(CCCCCC5)C4)nn23)cs1 | 1% | -0.2 |
| CCOC(=O)c1cc(-c2ccccc2)n(-c2cccc(C(=O)NC3CCCC(C)C3C)c2)c1C (stereo not drawn) | -5% | 0.74 |
| CC(C)=Cc1oc2c(Cl)cc(Cl)cc2c1N1CCN(C)CC1 | -3% | 0.37 |
| CCN1CC2(CCN(C(=O)c3cccnc3)CC2)C[C@@H](c2ccccc2)C1=O | 2% | -0.25 |
| O=C1CC[C@@H](C(=O)N2CCC(OCc3ccc(Cl)c(Cl)c3)CC2)N1 | 1% | -0.09 |
| CNc1nc(CN2CCC[C@H]2c2nc3ccccc3s2)cs1 | -4% | 0.71 |
| CCOC(=O)[C@@H]1CN(C(=O)CC(C)C)CCN1C(=O)CC(C)C | -4% | 0.36 |
| N#Cc1c(COC(=O)c2ccc3cn[nH]c3c2)cn2ccccc12 | -9% | 1.4 |
| CC(C)(C)Oc1cccc(CN2CCc3nccc(N)c3C2)n1 | 0% | 0.03 |
| Cc1c(-c2ccc(Br)cc2)nn(C2CCCC2)c1-c1ccc(Br)cc1 | 28% | -3.22 |
| O=C(CNC(=O)c1ccc(Cl)cc1)Nc1ccc2[nH]c(=O)[nH]c2c1 | 30% | -0.27 |
| NC(=O)C1CCCCC1NCc1nc(C2CCCC2)no1 (stereo not drawn) | -1% | 0.17 |
| Cc1cc(NC(=O)NC[C@H]2CCCS(=O)(=O)C2)no1 | 27% | -3.08 |
| Cc1cc(Oc2nc(N3CCCC3)nc3c2CN(S(=O)(=O)c2ccccc2)CC3)ccc1F | -2% | 0.23 |
| CCc1nc2ccccc2c(=O)n1Cc1noc([C@H](C)NC(=O)c2ccccc2)n1 | -6% | 0.67 |
| CCn1nc(CN[C@H]2CCOC2)c2ccccc21 | -10% | 1.89 |
| O=C(Nc1c(F)cccc1F)N1CCC[C@H](Oc2ccncc2)C1 | 5% | -0.62 |

| SMILES | % Inhibition | Z score |
| --- | --- | --- |
| O=C(Cn1ncc2c([nH]c3ccccc32)c1=O)N1CCN(c2ccccn2)CC1 | 2% | -0.32 |
| O=C1CC[C@H](C(=O)N2CCN(Cc3ccc4c(c3)OCO4)CC2)CN1 | -38% | 4.47 |
| O=C1c2ccccc2C(=O)N1CCCN1CCC[C@H](C(F)(F)F)C1 | -9% | 1.33 |
| CC1OCCC1NCCOc1ccccc1Cl (stereo not drawn) | -12% | 1.76 |
| C=CCn1cc(CN(CC)Cc2noc(C)n2)c(C)n1 | -5% | 0.63 |
| COCCN1CCC(CN2CCO[C@H](c3ccc(Cl)cc3)C2)CC1 | -7% | 0.81 |
| CC(=O)c1cccc(NC(=O)N2C3CCC2CN(C)C3)c1 | 27% | -3.04 |
| O=C(c1cc2cc(F)ccc2s1)N1C2CCC1CC(Oc1cccnc1)C2 (stereo not drawn) | -6% | 0.7 |
| CCC(C)C(NCC(O)COC)c1nc(-c2ccc3c(c2)OCO3)no1 (stereo not drawn) | -1% | 0.2 |
| Cn1nccc1NCc1ccc(Br)c2cccnc12 | 5% | -0.67 |
| COc1cccc(CNS(=O)(=O)c2cc(-c3nnc(C(=O)N4CCCC4)o3)sc2C)c1 | -7% | 0.99 |
| COC[C@@H]1OC[C@@]2(C)C3CC[C@@H](O)[C@@H](CC(=O)N4CCC(C)CC4)[C@]3(C)CC[C@H]2O1 (stereo partly drawn) | -1% | 0.17 |
| Cc1ncc(CN(C)C(=O)Nc2ccc(F)c(NC(=O)C3CCCCC3)c2)s1 | -6% | 0.57 |
| O=C(CCN1CCOC1=O)NC1CC1c1ccccc1C(F)(F)F (stereo not drawn) | -21% | 1.97 |
| COc1ccc2nc(CS(=O)(=O)Cc3nnc(C4CCC4)n3C)sc2c1 | -5% | 0.77 |
| Cc1cnc(CNC(=O)c2cc(C)nc(C)c2)cn1 | -5% | 0.61 |
| CNC(=O)[C@@H](NC(=O)c1c(C)nsc1NC)C(C)C | -1% | 0.11 |
| CN(C)c1nsc(N[C@H]2C[C@H](c3nnc(CO)n3C3CC3)C2)n1 | 3% | -0.48 |
| COC(=O)[C@H](C)N1CCc2c1cccc2C(F)(F)F | -1% | 0.08 |
| O=C(c1ccccc1OC(F)F)N1CCN(Cc2c[nH]cn2)CC1 | -7% | 1.3 |
| O=C([C@@H]1COc2cc(S(=O)(=O)Nc3ccc(F)cc3)ccc2O1)N1CCOCC1 | -12% | 1.26 |

| SMILES | % Inhibition | Z score |
| --- | --- | --- |
| CCOC(=O)C1=C(c2ccccc2)S/C(=C2/C(=S)C(C)(C)N(C(C)=O)c3cc(OC)ccc32)S1 | 2% | -0.31 |
| C[C@H]1CCN(S(=O)(=O)Nc2cccc3[nH]ncc23)C1 | -3% | 0.49 |
| COC1CCC(NC[C@H]2COc3ccccc3O2)CC1 (stereo partly drawn) | -7% | 1.18 |
| Cc1csc([C@H]2NC3(CCCC3)C(=O)N2CC(C)C)n1 | -3% | 0.31 |
| CN(c1ccc(Br)cc1F)S(=O)(=O)N1CCCC1 | -8% | 0.9 |
| FC(F)(F)c1ccnc(N2CCC[C@@H]2Cn2cncn2)n1 | -2% | 0.28 |
| C[C@H](Oc1ccc(Br)cc1)C(=O)Nc1nc(-c2ccccn2)cs1 | 1% | -0.12 |
| Cc1ccccc1OCC(=O)N1CCC[C@@H]1C(=O)O | -14% | 1.61 |
| Cc1ccccc1C(NC(=O)NC1CCN(CC2CCOC2)CC1)C(C)C (stereo not drawn) | -9% | 1.15 |
| CC(C)CN1CC2(CCN(C(=O)[C@H](F)c3ccccc3)CC2)CC1=O | 3% | -0.7 |
| CN(CC1CCCC1)C(=O)c1ccc(S(=O)(=O)NCCO)s1 | -1% | 0.13 |
| Cc1ccc(F)cc1CN1CCN2CCOC[C@@H]2C1 | 6% | -0.74 |
| N[C@H]1CCN(C(=O)COCc2ccccc2Cl)C1 | -9% | 0.88 |
| CCC(C)(C)N(C)C(=O)CCc1cccs1 | -7% | 0.95 |
| O=C(c1coc(-c2cccnc2)n1)N1CCC[C@@]1(c1ccccc1)C(F)(F)F | -1% | 0.2 |
| O=C(c1ccc(F)cc1)N1CC[C@H](CCOc2ccc(F)cc2)C1 | -18% | 3.43 |
| O=C1CC[C@@]2(CCCN(C(=O)c3ccsc3)C2)CN1CCc1c[nH]cn1 | -14% | 1.37 |
| Cc1ccnc(NC(=O)CC2CC3CCC2C3)c1 (stereo not drawn) | -2% | 0.43 |
| O=S(=O)(Nc1cc(-c2ccncc2)no1)c1ccc(Br)cc1 | -5% | 0.47 |
| Cc1cc(=O)n(CC(=O)NCc2ccc(Cl)cc2)c(N2CCc3ccccc3C2)n1 | 5% | -0.73 |
| COC[C@H](NCC(=O)N(C)C)c1ccc(C)o1 | -6% | 0.7 |
